Measured values published in PubChem BioAssay AID485344 (National Center for Advancing Translational Sciences (NCATS), 2010).
Several values for one entry are separate records, joined by “and”; a condition that tells them apart may be missing. Equal entries are not always repeated. Screen size: about 340,000 compounds; about 6,900 (2%) were called active. Rule as the data show it: active = inhibition above about 30%; inactive = below that, where a call was filed. Only a part is listed here, and it is no random draw. The source gives no active or inactive call for entries shown without one.

Biological target: D(2) dopamine receptor (Homo sapiens) (UniProt P14416)
Assay: HTS Assay for Allosteric Antagonists of the Human D2 Dopamine Receptor: Primary Screen for Antagonists; also: 0% is about no effect
Settings: HEK293 TREx D2 cells, calcium flux, dopamine EC80; at 10 µM; stronger effect = higher value
Summary of the method: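 Compounds are added to dye-loaded, induced HEK293 T-REx cells coupled to calcium release via D2; after a 3 min kinetic read an EC80 dopamine stimulus is given and fluorescence is recorded for 3 more min.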

UniProt P14416, sequence (P14416 whole entry, looked up): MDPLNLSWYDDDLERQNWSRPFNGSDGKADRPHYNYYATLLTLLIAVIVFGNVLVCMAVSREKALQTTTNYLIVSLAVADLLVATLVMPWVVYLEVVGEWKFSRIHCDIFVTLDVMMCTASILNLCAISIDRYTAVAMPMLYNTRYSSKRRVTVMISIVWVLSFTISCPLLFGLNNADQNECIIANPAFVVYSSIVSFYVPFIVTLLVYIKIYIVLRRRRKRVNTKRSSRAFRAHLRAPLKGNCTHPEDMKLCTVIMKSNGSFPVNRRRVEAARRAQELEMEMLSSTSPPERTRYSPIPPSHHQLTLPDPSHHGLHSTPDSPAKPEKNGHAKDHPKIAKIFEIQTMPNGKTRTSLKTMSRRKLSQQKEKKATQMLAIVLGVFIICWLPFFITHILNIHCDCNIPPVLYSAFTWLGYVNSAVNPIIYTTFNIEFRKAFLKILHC

| Compound | inhibition |
| --- | --- |
| COc1ccccc1NC(=O)CSc1oc(-c2ccc(F)cc2)nc1S(=O)(=O)c1ccc(Br)cc1 | -10.4% |
| Cn1c(=O)c2c(SCC(=O)Nc3ccc(F)cc3F)nc(C3CCCC3)nc2n(C)c1=O | 4.93% |
| CCOC(=O)c1cnc(N2CCN(c3ccc(C)cc3C)CC2)c2ccccc12 | -4.34% |
| Cc1cc(C)c(NC(=O)Cn2c(=O)n(CCC(=O)NCc3ccc4c(c3)OCO4)c(=O)c3ccccc32)c(C)c1 | 10.1% |
| CCCCn1c(CCC)nc([N+](=O)[O-])c1Sc1ccc(Cl)cn1 | active: 40.2% |
| CC(=O)Nc1ccc(C(=O)CSc2nnc3cc(C)c4ccccc4n23)cc1 | -22.3% |
| CCOC(=O)C1CCN(C(=O)CSc2c3c(nc4ccc(Cl)cc24)CCCC3)CC1 | 10.9% |
| COc1ccc(CCC(=O)NC2CC(=O)N(c3ccc(C)c(C)c3)C2)cc1 (configuration not stated) | -7.61% |
| Cc1ccc(CNC(=O)c2ccc(-c3nc(CN4CCc5ccccc54)c(C)o3)cc2)cc1 | -0.681% |
| Cc1cc(C)c(NC(=O)CSc2nnc3[nH]c(=O)cc(C)n23)c(C)c1 | -15% |
| O=c1c2ccccc2n2c(-c3ccc(F)c(F)c3)nnc2n1CCc1ccccc1 | -0.354% |
| CCOC(=O)c1ccccc1NC1(c2ccc(OC)cc2)C(=O)c2ccccc2C1=O | -4.51% |
| COCCN(C(=O)c1ccccc1)c1nnc(-c2cccnc2)s1 | active: 47.9% |
| CCC(=O)Nc1ccc2nc(SCC(=O)N3CCc4ccccc43)sc2c1 | 15.3% |
| CCOC(=O)c1c(S(=O)(=O)N2CCCC(C(=O)Nc3ccc(C)cc3C)C2)c(C)n(CC)c1C (configuration not stated) | 11.3% |
| COC(=O)c1ccc(C2c3c(oc4cc(C)c(C)cc4c3=O)C(=O)N2c2ccccn2)cc1 (configuration not stated) | 4.52% |
| Cc1nc2sc(C(=O)OCC(=O)N3c4ccccc4CC3C)c(C)c2c(=O)[nH]1 (configuration not stated) | active: 52.3% |
| COCCc1nn2c(=O)cc(COC(=O)COc3ccccc3C)nc2s1 | 14.2% |
| O=C(CCS(=O)(=O)c1cc2c3c(c1)CCN3C(=O)CC2)NCc1ccc(F)cc1 | -4.06% |
| O=C(Nc1noc2ccccc12)c1cccc(F)c1 | -12.8% |
| CCS(=O)(=O)NC(C)C(c1cccs1)N1CCN(c2ccc(F)cc2)CC1 (configuration not stated) | active: 39.7% |
| Cc1nc2nc(C)c(CCC(=O)NCCCN3CCN(c4cccc(Cl)c4)CC3)c(C)n2n1 | active: 88.7% and active: 72.6% |
| CC(C)c1ccc(NC(=O)C2CCCN(S(=O)(=O)c3cccc4nonc34)C2)cc1 (configuration not stated) | -4.89% |
| CCc1ccc(NC(=O)C2CCCN(S(=O)(=O)c3c(C)[nH]c(=O)[nH]c3=O)C2)cc1 (configuration not stated) | 2.72% |
| COC(=O)c1ccc(Cn2nc(-c3ccc(C)c(C)c3)ccc2=O)cc1 | -1.29% |

| Compound | inhibition |
| --- | --- |
| CC(C)c1ccc(NS(=O)(=O)c2ccc3[nH]c(=O)ccc3c2)cc1 | -23.4% |
| CCOc1ccc(CCNS(=O)(=O)c2c(C)nc3sc(C)cn3c2=O)cc1OCC | -3.08% |
| CC(=O)c1ccc(NC(=O)CCc2c(C)nn(-c3ccc4nncn4n3)c2C)cc1 | 22.1% |
| CSc1ccc(CCNC(=O)c2cc3n(n2)CCCN(Cc2ccc(C)cc2)C3=O)cc1 | -3.49% |
| CCC1CN(C(=O)N2CCC(C(=O)NCCOC)CC2)c2ccccc2O1 (configuration not stated) | 11.9% |
| CCCCN(CC)CCCNC(=O)CC1Oc2ccccc2NC1=O (configuration not stated) | active: 87% |
| Cc1ccc(NC(=O)CCS(=O)(=O)c2ccc3nc(C)sc3c2)cc1 | 1.98% |
| CCOc1ccccc1NC(=O)CSc1nnnn1-c1ccccc1 | active: 31.1% |
| Cc1ccccc1C(=O)Nc1nnc(SCc2cc(=O)c3c(C)ccc(C)c3[nH]2)s1 | -21.4% |
| CCc1ccc(NC(=O)Cn2nnc(C(=O)NCc3ccco3)c2N)cc1 | -0.697% |
| CC1CCN(S(=O)(=O)c2cc(C(=O)NCc3ccc(F)cc3)n(C)c2)CC1 | 0.024% |
| COc1cccc(COC(=O)c2ccc(-c3nnn(Cc4ccccc4)n3)cc2)c1 | -7.71% |
| O=C1C(c2ccc(F)cc2)N(CCc2ccccc2)C(=O)CN1C1CCCCC1 (configuration not stated) | 6.09% |
| COc1ccc(CN(C(=O)Nc2ccc(C)c(F)c2)C2CCN(C(C)=O)CC2)cc1 | 16% |
| CC(C)c1ccc(C(=O)Nc2cccc3cccnc23)cc1 | -10.8% |
| O=C(NCc1ccccc1)C1CCC(CNS(=O)(=O)c2ccc(Br)s2)CC1 (configuration not stated) | -2.47% |
| COc1cc(NC(=O)Cn2c(=O)n(C(C)C)c(=O)c3oc4ccccc4c32)cc(OC)c1 | -9.03% |
| CC1CCc2nn(CC(=O)Nc3cccc(C(F)(F)F)c3)c(=O)cc2C1 (configuration not stated) | 8.38% |
| COc1ccc(Cl)c(N2CCN(CCCNC(=O)Nc3ccc(C)cc3)CC2)c1 | active: 35.6% |
| O=C(Nc1cccnc1Cl)c1cc(-c2ccc(Cl)cc2)on1 | 9.6% |
| Cc1ccc2c(Cl)c(C(=O)Nc3ccc4c(c3)OCO4)sc2c1 | active: 33.6% |
| O=C(Nc1sc2c(c1C(=O)NCc1ccccc1)CCCC2)c1cc(=O)c2cc(Cl)ccc2o1 | -2.17% |
| CCc1ccccc1N1CC(c2nc3ccccc3n2Cc2cccc(C)c2)CC1=O (configuration not stated) | 7.62% |
| O=C(Nc1nc2nc(-c3ccccc3)cc(=O)n2[nH]1)c1ccc(F)cc1 | 22.9% |
| CCOc1ccc(S(=O)(=O)NCCc2sc(-c3ccc(C)cc3)nc2C)cc1 | 12.1% |

| Compound | inhibition |
| --- | --- |
| COc1cccc(CNC(=O)Cn2ccc3cc(S(=O)(=O)N4CCCC4)ccc32)c1 | -7.21% |
| CCOc1ccccc1N1CC(c2nc3ccccc3n2CCCOc2ccccc2OC)CC1=O (configuration not stated) | -0.582% |
| COc1ccc(Cl)cc1NC(=S)NCCc1ccc(F)cc1 | active: 39.6% |
| COc1cc(-c2noc(-c3ccc(NCCc4ccccc4)c([N+](=O)[O-])c3)n2)cc(OC)c1OC | 21.9% |
| COCC(=O)N1CCc2cc(OC)c(OC)cc2C1COc1ccc2c(C)cc(=O)oc2c1 (configuration not stated) | 10.6% |
| COc1cc(NC(=O)CCNS(=O)(=O)c2ccc3c(c2)CCN3C(=O)C2CC2)cc(OC)c1 | 7.21% |
| Cc1ccc(C)c(N2CCN(C(=O)c3ccc4c(Cl)c5c(nc4c3)CCCC5)CC2)c1 | -0.11% |
| COc1cccc(CNC(=O)c2c(O)nc3ccccn3c2=O)c1 | 5.32% |
| CCOc1ccc(N2CC(c3nc4ccccc4n3CC(C)C)CC2=O)cc1 (configuration not stated) | 1.16% |
| COc1ccc(N2CCN(C(c3ccccc3)c3nnc(-c4ccccc4Cl)o3)CC2)cc1 (configuration not stated) | 12.7% |
| Cc1cccc(NC(=O)CSc2nc3c(oc4ccccc43)c(=O)n2C(C)C)c1 | -2.1% |
| CC1=C(C(=O)NCCc2ccc(Cl)cc2)C2(CCCCC2)OC1=O | -7.81% |
| COCCNC(=O)CCCn1c(SCC(=O)Nc2cccc(C)c2)nc2c(sc3ccccc32)c1=O | -4.61% |
| COc1cccc(CNC(=O)Cn2ncc3c4ccccc4n(C)c3c2=O)c1 | 1.98% |
| COc1ccc(C(=O)c2oc3ccccc3c2NC(=O)COc2c(C)cc(C)cc2C)cc1 | 5.56% |
| O=c1oc2ccc(Br)cc2cc1-c1nc(-c2ccccc2)no1 | -11.6% |
| CCS(=O)(=O)N1CC(=O)N(c2ccc(C)c(C)c2)C(C)(C(=O)NC2CCCCC2)C1 (configuration not stated) | -9.32% |
| CCc1ccc(-c2nc3c(c(SCc4ccc(F)cc4)n2)Cc2c(CO)cnc(C)c2O3)cc1 | 0.507% |
| Cc1ccc2c(CC(=O)Nc3cc(C(F)(F)F)ccc3Cl)coc2c1C | -2.77% |
| Cc1cc(C)c2c(=O)cc(C(=O)Nc3ccccc3Cl)oc2c1 | 8.73% |
| CCC12CN3CC(CC)(CN(C1)C3c1ccc(OCc3ccccc3)cc1)C2=O (configuration not stated) | -6.3% |
| CCOC(=O)c1c(C)[nH]c(C)c1S(=O)(=O)N1CCC(C(=O)Nc2ccccn2)CC1 | 2.03% |
| COc1ccc(C2CC(=O)Nc3c2c(=O)nc2c(C)cccn32)cc1 (configuration not stated) | -0.661% |
| Cc1ccc2oc(=O)n(CCNC(=O)Nc3ccccc3Cl)c2c1 | 21.7% |
| Oc1ccccc1N1CCN(Cc2ncc(-c3ccccc3)o2)CC1 | active: 56.9% |

| Compound | inhibition |
| --- | --- |
| COc1cc(OC)cc(C(=O)Nc2ccc3nc(N4CCC(C)CC4)cc(C)c3c2)c1 | -3.32% |
| COc1cccc(C(=O)Nc2nnc(S(=O)(=O)N3CCOCC3)s2)c1 | -13.4% |
| CCCCOc1cccc(C(=O)Nc2cccc3ccc(C)nc23)c1 | -8.73% |
| Cc1ccc(CS(=O)(=O)Cc2ccc(C(=O)NCCc3ccc(Cl)cc3)o2)cc1 | -7.97% |
| Cc1cc(=O)[nH]c(-n2nc(C)cc2C)n1 | active: 43.8% |
| Cc1cc(-c2ccc(C)c(S(=O)(=O)NCc3ccc(Cl)cc3)c2)on1 | -0.801% |
| CCCS(=O)(=O)NCCc1csc2nc(-c3ccc(OC)cc3)nn12 | -9.33% |
| CCc1c(C)nc2nncn2c1Nc1ccc(C)c(F)c1 | 9.06% |
| Cc1ccccc1CNC(=O)CCCn1nc(C)c2sc3ccccc3c2c1=O | -9.15% |
| COc1ccc(C2NC(=O)NC(C)=C2C(=O)Nc2cc(C)cc(C)c2)c(OC)c1 (configuration not stated) | 2.07% |
| CN(Cc1ccccc1)c1ncnc2c1nc1n2CCCC1 | -8.92% |
| COc1ccccc1N(CC(=O)NCCSCc1ccc(Cl)cc1)S(C)(=O)=O | 3.89% |
| O=C(Cn1nnc2sc3c(c2c1=O)CCCC3)Nc1ccc(F)c(Cl)c1 | -1.2% |
| COc1cccc(NC(CNS(=O)(=O)c2ccc(C)cc2)c2ccccc2)c1 (configuration not stated) | 9.03% |
| CCN1C(=O)c2ccccc2Sc2ccc(NC(=O)c3ccc(C)c(F)c3)cc21 | -18.1% |
| Cc1nc2cc(-c3cccc(F)c3)nn2c(C)c1CCC(=O)N1CCN(c2ccc(F)cc2)CC1 | 2.96% |
| O=C(Nc1cccc(Cl)c1)c1cc(S(=O)(=O)N2CCOCC2)cs1 | active: 34.8% |
| CCOC(=O)c1cccc(NC(=O)CC(c2ccc(F)cc2)N2Cc3ccccc3C2=O)c1 (configuration not stated) | 17.5% |
| CCOc1cc(C#N)c(NC(=O)c2ccc(OC)c(S(=O)(=O)N3CCCC3)c2)cc1OCC | 1.97% |
| O=S(=O)(c1ccccc1)c1nc(-c2ccc(F)cc2)oc1N1CCOCC1 | 4.33% |
| O=C(c1nc(-c2ccc(Cl)cc2)n2c1CCCCC2)N1CCN(c2ccc(F)cc2)CC1 | 5.34% |
| CCCOc1ccc(OC(=O)c2sc3ncn(Cc4cccc(F)c4)c(=O)c3c2C)cc1 | -11.3% |
